Measured values published in PubChem BioAssay AID485281 (National Center for Advancing Translational Sciences (NCATS), 2010).
The whole screen tested about 350,000 compounds, of which about 260 (0.074%) were called active. Inconclusive results, whose numbers are uncertain, are shown with a selection of clear calls. Calls come from the whole dose curve; as a rule, active = well fitted inhibition curve with a large enough effect; inconclusive = small, poorly fitted or top-dose-only effect; inactive = no such curve, though single readings can be large or run the other way. Where the call is inconclusive, the potency comes from a doubtful curve fit.

biological target: Ferritin light chain (Equus caballus) (UniProt P02791); test: qHTS Assay for Identification of Novel General Anesthetics; settings: apoferritin/1-aminoanthracene competitive binding, fluorescence; activity change, negative = displacement: at 77.5 µM (top of the series); note: nearly all actives have a fitted effect of over 20% in size
Chain of UniProt P02791 (P02791 whole entry, looked up): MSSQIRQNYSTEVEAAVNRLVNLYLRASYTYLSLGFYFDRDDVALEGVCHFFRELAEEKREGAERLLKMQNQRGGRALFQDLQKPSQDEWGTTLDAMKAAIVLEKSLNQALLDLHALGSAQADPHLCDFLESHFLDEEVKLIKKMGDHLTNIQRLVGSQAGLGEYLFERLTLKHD
Procedure, shortened: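 Read-out: endpoint 1-AMA fluorescence, excitation 380 nm and emission 535 nm, after compounds sit 10 min at room temperature with 10 uM horse-spleen apoferritin in 50% saturated 1-AMA/PBS. Values come from four-parameter Hill fits.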
% is set by controls: 0 for no effect and ±100 for the full control effect; potency is the fitted concentration of half-maximal effect; tags give direction and shape of the fitted curve.

SMILES | Potency | activity change, negative = displacement
Cc1cccc(Nc2n[nH]c(=S)s2)c1C | inconclusive: 20 µM [inhibitor, partial curve] | 
C/C(Cc1ccccc1)=N\NC(=O)CNC(=O)c1ccc(Cl)cc1Cl | inconclusive: 15.8 µM [inhibitor, partial curve] | 
Cc1ccc(Oc2ccc(S(=O)(=O)N3CCOCC3)cc2C(N)=O)c(-n2nc3ccccc3n2)c1 | inconclusive: 14.1 µM [inhibitor, partial curve] | 
COc1cc(CNCCSc2nnnn2C)ccc1OCc1ccccc1 | inconclusive: 31.6 µM [inhibitor, partial curve] | 
Cc1cc(C)c2nc(SCC(=O)NCCC3=CCCCC3)cc(C)c2c1 |  | inactive: -1.89%
NNC(=O)c1sccc1OCc1ccc(Cl)cc1 | inconclusive: 35.5 µM [inhibitor, partial curve] | 
O=C(COC(=O)CCN1C(=O)c2ccccc2C1=O)Nc1ccc(S(=O)(=O)N2CCCC2)cc1 | inconclusive: 50.1 µM [inhibitor, single point] | 
O=C(CC(=O)N/N=C/c1ccc(Cl)cc1Cl)NCc1ccccc1 | inconclusive: 12.6 µM [inhibitor, partial curve] | 
Cc1ccc(S(=O)(=O)NCC(=O)NCC(=O)OCc2c(F)cccc2Cl)cc1 |  | inactive: 88.8%
O=C1CC(c2ccccc2)CC(=O)C1CS(=O)(=O)c1ccccc1 (configuration not stated) | inconclusive: 35.5 µM [inhibitor, partial curve] | 
Cc1ccccc1Nc1nc(CSc2nnnn2-c2ccccc2)cs1 | inconclusive: 44.7 µM [inhibitor, partial curve] | 
COc1ccccc1N1CCN(/N=C/c2ccc(Cl)c([N+](=O)[O-])c2)CC1 |  | inactive: -11.9%
O=C(Cn1nc(-c2ccc(Cl)cc2)ccc1=O)NCC1CCCO1 (configuration not stated) | inconclusive: 11.2 µM [inhibitor, partial curve] | 
O=C1CCCc2ccccc2N1Cc1ccccc1Cl | inconclusive: 44.7 µM [inhibitor, partial curve] | 
Cc1ccc(CNC(=O)COC(=O)c2ccc(Cl)c(N)c2)cc1 | inconclusive: 35.5 µM [inhibitor, partial curve] | 
COc1ccc(N2CCN(CCC(=O)c3ccc4ccccc4c3)CC2)cc1 |  | inactive: -7.43%
CC(C)C[C@@H](C=O)NC(=O)[C@H](CC(C)C)NC(=O)[C@H](CC(C)C)NC(=O)OCc1ccccc1 |  | inactive: 8.95%
CS(=O)(=O)N1CC2CCCN2c2cc(C(F)(F)F)ccc21 (configuration not stated) | inconclusive: 39.8 µM [inhibitor, single point] | 
COCc1cc(C)nc(OCC(=O)N/N=C\c2cc(C)n(-c3cccc(C(F)(F)F)c3)c2C)c1C#N | inconclusive: 31.6 µM [inhibitor, partial curve] | 
CCOc1ccc(CCNc2ncnc3onc(C)c23)cc1OCC |  | inactive: -0.796%
Cc1nc2ncnn2c(N2CCN(c3cccc(C(F)(F)F)c3)CC2)c1C | inconclusive: 25.1 µM [inhibitor, partial curve] | 
S=c1[nH]nc(COc2ccccc2)n1/N=C/C(Cl)=C/c1ccccc1 | inconclusive: 35.5 µM [inhibitor, partial curve] | 
O=C(CCn1nnc2ccccc21)Nc1nnc(Cc2ccc(F)cc2)s1 | inconclusive: 10 µM [inhibitor, partial curve] | 

SMILES | Potency | activity change, negative = displacement
CC(NC(=O)c1cccc(Cn2cc([N+](=O)[O-])cn2)c1)c1ccc(C(C)(C)C)cc1 (configuration not stated) | inconclusive: 5.62 µM [inhibitor, full curve, poor fit] | 
O=C(Oc1c(CN2CCOCC2)cc(Cl)c2cccnc12)c1ccccc1Cl |  | inactive: -23.2%
[O-]/C(=C(\C(=S)NCCN1CCOCC1)[n+]1ccccc1)c1ccc(Cl)s1 |  | inactive: -14.9%
CCCC(=N)C1=C(O)CC(CC(C)SCC)CC1=O (configuration not stated) | inconclusive: 35.5 µM [inhibitor, partial curve] | 
CCCCNC(=O)OCCNC(=O)Oc1cccc(C)c1 | inconclusive: 28.2 µM [inhibitor, partial curve] | 
COC(=O)N1CC=CC1(C)C(=O)NCC1CC1 (configuration not stated) |  | inactive: -9.75%
CCCCN(C)c1nc(-c2ccco2)c2c(c1C#N)CC(C)(C)OC2 | inconclusive: 28.2 µM [inhibitor, partial curve] | 
O=C(Nc1ccc(Cl)c(NC(=O)c2cccs2)c1)c1ccco1 | inconclusive: 17.8 µM [inhibitor, partial curve] | 
Cc1cc([N+](=O)[O-])cc(/C=N\NC(=O)C2COc3ccccc3O2)c1O (configuration not stated) |  | inactive: 4.11%
CCN(CC)S(=O)(=O)c1ccc(NC(=O)c2cc(-c3cccs3)nc3ccccc23)cc1 |  | inactive: 5.63%
Cc1cc(N2CCCCC2)n2ncc(-c3ccc(Cl)cc3)c2n1 |  | inactive: -0.64%
CC(C)(C)c1ccc(OCCNC(=S)Nc2ccccc2)cc1 | inconclusive: 22.4 µM [inhibitor, partial curve] | 
CCOC(=O)c1csc(NC(=O)c2cccs2)n1 |  | inactive: -7.96%
CCC(Oc1ccccc1)C(=O)Nc1nnc(S(=O)(=O)N2CCCC2)s1 (configuration not stated) | inconclusive: 17.8 µM [inhibitor, partial curve] | 
NS(=O)(=O)c1ccc(NCc2ccccc2OCc2ccc(F)cc2)cc1 | inconclusive: 25.1 µM [inhibitor, partial curve] | 
CCOC(=O)C1C(=O)OC(C)(C)C1C(C)C(=O)c1ccc(C)cc1C (configuration not stated) | inconclusive: 39.8 µM [inhibitor, single point] | 
Nc1scc2c(C(=O)N/N=C/c3ccc(Cl)cc3)nn(-c3ccccc3)c(=O)c12 | inconclusive: 50.1 µM [inhibitor, single point] | 
Cn1c(=O)n(C)c2cc(NS(=O)(=O)c3ccc(Cl)cc3)c(NCc3ccccc3)cc21 |  | inactive: 1.21%
CCC(c1nnc(SCc2nc3ccccc3s2)n1Cc1ccccc1)N(C)C (configuration not stated) | inconclusive: 31.6 µM [inhibitor, partial curve] | 
CC(C)(C)c1ccc(Cn2nnc3c(=O)[nH]c(C4CCN(C(=O)c5ccco5)CC4)nc32)cc1 |  | inactive: -16.5%
Cc1ccc(-c2csc3ncn(CC#N)c(=O)c23)cc1C | inconclusive: 31.6 µM [inhibitor, partial curve, poor fit] | 
CC(Nc1ccccc1)c1ccncc1 (configuration not stated) | inconclusive: 35.5 µM [inhibitor, partial curve] | 
CC1CN(C(=O)CCC(=O)NC2CCCCC2)c2ccccc2S1 (configuration not stated) | inconclusive: 28.2 µM [inhibitor, partial curve] | 

SMILES | Potency | activity change, negative = displacement
CC1(c2ccccc2)NC(=O)N(CC(=O)Nc2ccc3c(c2)OCO3)C1=O (configuration not stated) | inconclusive: 22.4 µM [inhibitor, partial curve] | 
CCCN(CCC)S(=O)(=O)c1ccc(C(=O)N2CCC(=O)c3ccccc32)cc1 | inconclusive: 35.5 µM [inhibitor, partial curve] | 
COc1cc2c(cc1OC)C(c1ccc(-c3ccc(Cl)c(Cl)c3)o1)=NCC2 | inconclusive: 31.6 µM [inhibitor, partial curve] | 
CC(C)(C)C1CCC(=NNC(=O)CC(=O)NCc2ccccc2)CC1 (configuration not stated) | inconclusive: 31.6 µM [inhibitor, single point] | 
CCN1C(=O)/C(=C/c2ccc(N3CCCC3)cc2)NC1=S | inconclusive: 25.1 µM [inhibitor, partial curve] | 
Brc1cccc(-c2nnc(SCc3nc4ccccc4[nH]3)o2)c1 | inconclusive: 22.4 µM [inhibitor, partial curve, poor fit] | 
O=C(Nc1nnc(-c2ccc3c(c2)CCCC3)o1)C1COc2ccccc2O1 (configuration not stated) | inconclusive: 31.6 µM [inhibitor, partial curve] | 
CCN(CC)S(=O)(=O)c1cc(C(=O)Oc2cccc(-c3cnc4ccccc4n3)c2)ccc1Br | inconclusive: 1.41 µM [inhibitor, full curve, poor fit] | 
Cc1nn2c(=O)cc(COC(=O)c3ccccc3NC(=O)C3CCCCC3)nc2s1 | inconclusive: 22.4 µM [inhibitor, partial curve] | 
CC(C)c1ccc(/C=N/NC(=O)c2ccccc2Cl)cc1 | inconclusive: 28.2 µM [inhibitor, partial curve] | 
N#C/C(=C\c1ccc(N2CCCC2)c([N+](=O)[O-])c1)c1nc2ccccc2[nH]1 | inconclusive: 2 µM [inhibitor, partial curve] | 
c1ccc(CNc2ccc(CNc3ncn[nH]3)cc2)cc1 | inconclusive: 25.1 µM [inhibitor, partial curve] | 
Cc1ccc(NC(=S)NNC(=S)NC2CCCCC2)cc1 | inconclusive: 39.8 µM [inhibitor, single point] | 
Cc1ccccc1N1C(=O)CC(c2c[nH]c3ccccc23)C1=O (configuration not stated) | inconclusive: 25.1 µM [inhibitor, partial curve] | 
FC(F)(F)c1nnc(-c2ccccc2)nc1Oc1ccc(Cl)cc1Cl | inconclusive: 28.2 µM [inhibitor, partial curve] | 
Cc1ccc(NC(=O)CSc2nnc(N)s2)c([N+](=O)[O-])c1 | inconclusive: 31.6 µM [inhibitor, single point] | 
CC(=O)Nc1ccc2nc(-c3ccccc3)cn2c1 |  | inactive: -2.18%
CC(C)CNC(=O)CC(c1ccccc1)c1c(O)ccc2ccccc12 (configuration not stated) | inconclusive: 15.8 µM [inhibitor, partial curve] | 
CC(=O)[C@@H]1[C@@H](C(=O)c2ccc(C)cc2)[C@]2(C(=O)Nc3ccccc32)[C@H]2C=Cc3cc(F)ccc3N12 | inconclusive: 12.6 µM [inhibitor, partial curve] | 
O=C(Nc1ccc2c(c1)CCC2)c1ccc(Br)o1 | inconclusive: 31.6 µM [inhibitor, partial curve] | 
COCCNc1oc(-c2ccco2)nc1S(=O)(=O)c1ccccc1 |  | inactive: -7.64%
